Reference: PubChem BioAssay AID504832 (National Center for Advancing Translational Sciences (NCATS), 2011)
In all, about 310,000 compounds went through this assay and about 18,000 (5.8%) were called active. This list was built around the results that the source calls inconclusive (neither active nor inactive); the mix of calls is not that of the screen. The call rests on the fitted dose curve; in most records, active means well fitted inhibition curve with a large enough effect; inconclusive means small, poorly fitted or top-dose-only effect, or another doubt; inactive means no such curve, though single readings can be large or run the other way. No potency is given beside an inconclusive call; the fits are too rough.

Assay: Primary qHTS for delayed death inhibitors of the malarial parasite plastid, 48 hour incubation
Details: P. falciparum luciferase growth in erythrocytes; series mostly up to 28.7 µM
In short: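 Growth was read as firefly luciferase luminescence after a 48 h, 37 C, 5% CO2 exposure of compounds to reporter-bearing P. falciparum cultures (0.1% parasitemia, 2% hematocrit final) in Albumax-supplemented RPMI 1640.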
On the % scale 0 is the no-effect control and ±100 the full control effect; potency means the concentration at half of the fitted maximal effect; tags describe the fitted curve by direction and shape.

Row | SMILES | Potency | activity change, negative = inhibition
1 | COC(CNc1ncnc2sc(-c3ccccc3)cc12)OC | inactive | 
2 | CC(C)(C)c1nnc(SCC(=O)Nc2ccc(N3CCCCC3)cc2)n1N | inactive | 
3 | CC(C)n1cc(/C=C(\C#N)S(=O)(=O)c2ccccc2)c2ccccc21 | inconclusive [inhibitor, single point] | 
4 | Cc1ccc(CNC(=O)CCN2C(=O)[C@@H]3Cc4ccccc4CN3C2=O)cc1 | inconclusive [inhibitor, single point] | 
5 | CCCOC(=O)c1ccc(NC(=O)Cc2cccs2)cc1 | inactive | 
6 | Cc1ccc2c(c1)C(c1ccccc1)N(C(=O)c1cccc([N+](=O)[O-])c1)CC(=O)N2 (configuration not stated) | inconclusive [inhibitor, partial curve, poor fit] | 
7 | Cc1ccc(-c2csc(NC(=O)C3=NN(c4ccccc4)C(=O)CC3)n2)cc1 | inconclusive [inhibitor, single point] | 
8 | O=C(CSc1nc2ccccc2s1)N1c2ccccc2Sc2ccc(C(F)(F)F)cc21 | active: 14.7 µM | 
9 | Nn1c(SCC(=O)N2CCOCC2)nnc1-c1cccnc1 | inactive | 
10 | Cn1cc(CNC(=O)C2CCC(=O)N(Cc3ccc(Cl)cc3)C2)cn1 (configuration not stated) | inconclusive [inhibitor, single point] | 
11 | Cc1c(Cc2ccc3c(c2)OCO3)sc(NC(=O)C(C)(C)C)c1C#N | inconclusive [inhibitor, partial curve, poor fit] | 
12 | COc1ccccc1CCNC(=O)C(=O)NCC1OCCCN1S(=O)(=O)c1cc(C)ccc1C (configuration not stated) | inconclusive [inhibitor, partial curve] | 
13 | Cc1cc(C)cc(NC(=O)CNC(c2ccccc2)c2ccccc2)c1 | inconclusive [inhibitor, single point] | 
14 | C[C@@H]1CC=C[C@H]2[C@H]1C(=O)N(Cc1ccccc1)[C@H]2c1ccc(-c2ccc(N(C)C)cc2)cc1F | inconclusive [inhibitor, full curve, poor fit] | 
15 | COc1ccc(C(=O)OCC(=O)c2cc(C)n(CC3CCCO3)c2C)cc1[N+](=O)[O-] (configuration not stated) | inconclusive [inhibitor, single point] | 
16 | N#CN(CC(N)=O)c1nc(N2CCCCC2)nc(N2CCCCC2)n1 | inconclusive [inhibitor, partial curve, poor fit] | 
17 | COc1ccc2ccc3c(c2c1)N=C[C@]1(O3)N(C)c2ccccc2C1(C)C | inconclusive [inhibitor, partial curve, poor fit] | 
18 | CCC1CCCCN1Cc1nc2ccccc2c(=O)n1CC(C)=O (configuration not stated) | inconclusive [inhibitor, partial curve, poor fit] | 
19 | CC(=O)Nc1ccc(S(=O)(=O)N2c3ccccc3NC(=O)CC2C)c(Cl)c1 (configuration not stated) | active: 2.08 µM | 
20 | CC1CCCCN1C(=O)c1ccc(CS(=O)(=O)Cc2ccccc2)cc1 (configuration not stated) | inactive | 
21 | COc1ccc2c(c1)-c1nc(NC(=O)c3cccs3)sc1CC2 | inconclusive [inhibitor, partial curve, poor fit] | 
22 | Cc1ccsc1-c1cc(C(=O)O)c2c(ccc3ccccc32)n1 | inactive | 
23 | CN1CCN(C(=S)c2cn(Cc3cccc(F)c3)c3ccccc23)CC1 | inconclusive [inhibitor, partial curve, poor fit] | 

Row | SMILES | Potency | activity change, negative = inhibition
24 | COC(=O)C1=C(c2ccc(-c3ccccc3)c(F)c2)C[C@@H]2CC[C@H]1N2C(=O)N1CCOCC1 | inconclusive [inhibitor, partial curve] | 
25 | CCCn1c(N)c(N(CCOC)C(=O)c2ccccc2)c(=O)[nH]c1=O | inactive | 
26 | COc1ccc(-c2nc(N)ncc2-c2ccc(Cl)cc2)c(O)c1 | inconclusive [inhibitor, single point] | 
27 | O=C(CSc1n[nH]c(-c2ccc(S(=O)(=O)N3CCCCC3)cc2)n1)Nc1nccs1 | inconclusive [inhibitor, partial curve] | 
28 | CC(C)(C)c1ccc(/C=C/C(=O)N2CCc3ccccc3C2)cc1 | active: 0.928 µM | 
29 | O=C(NC1CCCC1)C(c1cccnc1)N(C(=O)c1ccco1)c1ccc(F)cc1 (configuration not stated) | inconclusive [inhibitor, partial curve, poor fit] | 
30 | CCN(CC)CCNC(=O)c1cc2cc3ccc(OC)cc3nc2o1 |  | inactive: -0.567% [at 0.00184 µM]
31 | CCc1cccc(CC)c1NC(=O)C1CN(S(=O)(=O)c2ccccc2)CCN1S(=O)(=O)c1ccccc1 (configuration not stated) | inconclusive [inhibitor, partial curve] | 
32 | O=c1c2ccccc2nc(/C=C/c2ccc(O)c(O)c2)n1-c1ccccc1 | inconclusive [inhibitor, single point] | 
33 | C=CC[C@H]1CC(C)=C[C@H](CC=C)N1 | active: 0.928 µM | 
34 | CCOc1ccc(C2=Nn3c(nnc3-c3cccnc3)SC2)cc1 | inconclusive [inhibitor, partial curve, poor fit] | 
35 | CCCCNS(=O)(=O)c1ccc2nc(-c3cccnc3)cc(C(=O)NCCCN(CC)CC)c2c1 | active: 11.7 µM | 
36 | CCOC(=O)C(NC(=O)c1ccccc1OCC)(Nc1ncccn1)C(F)(F)F (configuration not stated) | inconclusive [inhibitor, partial curve] | 
37 | CCCn1nc2cc(C(=O)NC3CCCc4ccccc43)ccc2c1OCC (configuration not stated) | inconclusive [inhibitor, single point] | 
38 | O=c1c2ccccc2nc(CN2CCCCCC2)n1-c1ccc(F)cc1 | inconclusive [inhibitor, single point] | 
39 | COc1ccc(CNC(=S)N/N=C/c2ccncc2)cc1 | inactive | 
40 | CC(C)(C)c1ccc(C(=O)N2CCC(NC(=O)c3ccccc3)CC2)cc1 | inconclusive [inhibitor, partial curve] | 
41 | CCCn1c(C(C)Nc2nc(-c3ccc(C)cc3)cs2)nc2ccccc21 (configuration not stated) | inconclusive [inhibitor, full curve, poor fit] | 
42 | NC(=S)N/N=C/c1ccc(-c2cc(Cl)cc(Cl)c2)o1 | inconclusive [inhibitor, partial curve, poor fit] | 
43 | Cc1cc(C)c(C)c(S(=O)(=O)N2CCC(C(=O)NC3=NCCS3)CC2)c1C | inconclusive [inhibitor, single point] | 
44 | O=C(CN1C(=O)NC2(CCCCCC2)C1=O)c1cccs1 | inactive | 
45 | CSc1ccc(S(=O)(=O)N2CCC(C(=O)NCCc3ccccc3)CC2)cc1 | inconclusive [inhibitor, single point] | 
46 | COc1cc(OC)nc(S(C)(=O)=O)n1 | inconclusive [inhibitor, partial curve] | 

Row | SMILES | Potency | activity change, negative = inhibition
47 | Cc1onc(-c2ccccc2)c1-c1nnc(CN2CCN(S(=O)(=O)c3ccccc3)CC2)o1 | inconclusive [inhibitor, partial curve] | 
48 | COc1ccc(NC(=O)CCN2C(=O)c3ccncc3C2=O)cc1OC | inactive | 
49 | COc1cccc(-c2nn(-c3ccccc3)cc2CN(C)C(C)c2ccon2)c1 (configuration not stated) | inconclusive [inhibitor, single point] | 
50 | CN(C)C(CNC(=O)c1cccc(S(=O)(=O)Nc2ccc(Br)cc2)c1)c1ccco1 (configuration not stated) | inconclusive [inhibitor, single point] | 
51 | Cc1cc(C)c(NC(=O)CSCc2nc3sc(C)c(C)c3c(=O)[nH]2)c(Cl)c1 | inconclusive [inhibitor, single point] | 
52 | COc1ccc(CCN(C)c2ccc(S(=O)(=O)N3CCCC3)cn2)cc1OC | inconclusive [inhibitor, single point] | 
53 | O=C(NC1CC2CCC(C1)N2C(=O)NCc1ccccc1)NC12CC3CC(CC(C3)C1)C2 (configuration not stated) | inconclusive [inhibitor, single point] | 
54 | Cn1c(=O)oc2cc(S(=O)(=O)NC3CCCCC3)ccc21 | inactive | 
55 | O=C(NNC1=Nc2ccccc2SC1)c1cccc([N+](=O)[O-])c1 | inconclusive [inhibitor, single point] | 
56 | Cc1cccc(Nc2ccc(NCc3ccccc3)nn2)c1 | inactive | 
57 | COC(=O)c1ccc2c(=O)n(CCCCCC(=O)O)c(=S)[nH]c2c1 | inconclusive [inhibitor, single point] | 
58 | Cc1ccc(C)c(NC(=O)C2C3CCCC2C3c2ccccc2)c1 (configuration not stated) | inactive | 
59 | CCN=C1SC(CC(=O)Nc2ccc(C(F)(F)F)cc2)C(=O)N1CC (configuration not stated) | active: 2.62 µM | 
60 | CCN1CCN(c2oc(-c3ccccc3C)nc2S(=O)(=O)c2ccccc2)CC1 | inconclusive [inhibitor, single point] | 
61 | COC(=O)/C=C1/S/C(=N/N=C/c2ccco2)NC1=O | inconclusive [inhibitor, partial curve] | 
62 | C=COCCNC(=S)N1CCOCCOCCN(C(=S)NCCOC=C)CCOCC1 | inconclusive [inhibitor, single point] | 
63 | Cc1ccc2nc(-c3ccccn3)cc(C(=O)Nc3ccc(S(=O)(=O)N4CCOCC4)cc3)c2c1 | active: 13.1 µM | 
64 | O=C(Nc1cccc(Cl)c1)Nc1nnc(CSCCOc2ccc(Cl)cc2)s1 | active: 11.7 µM | 
65 | COc1ccc(NC(=O)CCSc2nc(C)cs2)cc1 | inactive | 
66 | O=C(CC1CC2CCC1C2)N1CCN(S(=O)(=O)c2ccccc2C(F)(F)F)CC1 (configuration not stated) | active: 11.7 µM | 
67 | Cc1ccc2nc(N(CCN(C)C)C(=O)/C=C/c3cccs3)sc2c1 | inconclusive [inhibitor, single point] | 
